Source: PubChem BioAssay AID463173 (ICCB-Longwood Screening Facility, Harvard Medical School, 2010)
Hit rate of the full screen: of about 52,000 compounds, about 1,700 (3.3%) were called active. Rule as the data show it: active = survival mostly below about 52% (no sharp cut-off); inactive = mostly above about 56%. Some of the results follow.

What follows are compounds tested on Wild type (assay: growth inhibition of S. aureus wild type versus tarO mutant, primary screen, teichoic acid synthesis inhibitors, RN4220, OD600 (AID 463173)). Conditions: S. aureus RN4220 wild type/DeltatarO growth, OD600, 18 h, active compounds read low, screened at 18.75 µg/mL (by protocol).

| Structure (SMILES) | survival |
| --- | --- |
| Cc1ccccc1NC(=O)CCc1c(C)nn(-c2ccc(N3CCCCC3)nn2)c1C | inactive: 68% |
| Cc1ccc(-n2c(=O)c3c4c(sc3n(Cc3ccccc3F)c2=O)CCC4)cc1C | inactive: 116% |
| Cc1nc(-c2ccc(Cl)cc2)sc1CCNC(=O)c1ccco1 | inactive: 135% |
| COc1cc(-c2nc3sccn3c2Nc2cccc(C)c2)ccc1O | inactive: 60% |
| Cc1ccc(O)c(-c2ccnc3cc(-c4ccc(Cl)cc4)nn23)c1 | inactive: 81% |
| Cc1coc2cc3oc(=O)c(CC(=O)NCc4ccc(F)cc4)c(C)c3cc12 | inactive: 99% |
| COc1ccc(C(=O)Nc2ccc3nc(SCc4ccc(C)cc4)sc3c2)cc1 | inactive: 93% |
| Cc1ccc(Cn2c(=O)n(Cc3nc(-c4ccccc4)no3)c(=O)c3cc4c(cc32)OCO4)cc1 | inactive: 82% |
| COc1ccccc1OCCCn1c(C2CC(=O)N(c3ccccc3Cl)C2)nc2ccccc21 (stereo not drawn) | inactive: 93% |
| O=c1[nH]c2ccc(N=Cc3ccc(F)cc3)cc2[nH]1 | inactive: 103% |
| CC(=O)c1cccc(NC(=O)CCc2c(C)nc3c(-c4ccc(F)cc4)c(C)nn3c2C)c1 | inactive: 81% |
| CC1(C)CC(=O)C=C(Nc2ccccc2NC(=O)c2cnccn2)C1 | inactive: 102% |
| Cn1c(C(C(=O)NCC2CCCO2)N(C(=O)Cn2nnc3ccccc32)c2ccc3c(c2)OCO3)nc2ccccc21 (stereo not drawn) | inactive: 111% |
| O=C(Nc1ccccc1)N1CCN(C(=O)c2nsc3ccccc23)CC1 | inactive: 85% |
| C=CCSc1nc2ccccc2n1C(=O)c1ccc2c(c1)OCO2 | inactive: 97% |
| Cc1ccc(CCNC(=O)CCn2c(=O)c3cccn3c3ccc(F)cc32)cc1 | inactive: 64% |
| CCCc1nc2sc3c(N4CCCCC4)ncnc3c2c2c1CCCC2 | active: 13% |
| COc1ccc(OC)c(NC(=O)Cn2cc(S(=O)(=O)c3ccccc3)c(=O)c3cc(C)ccc32)c1 | inactive: 83% |
| COc1cccc(C2NC(=O)NC(C)=C2C(=O)Nc2ccccc2C)c1OC (stereo not drawn) | inactive: 107% |
| CN(C)Cn1c(O)c(N=NC(=O)c2ccccc2)c2ccccc21 | inactive: 106% |

| Structure (SMILES) | survival |
| --- | --- |
| Cc1cc(=O)n2nc(N3CCC(C(=O)Nc4ccc(C(C)C)cc4)CC3)sc2n1 | inactive: 87% |
| CCNC(=O)CC1C(=O)N(c2ccccc2)C(=O)N1Cc1ccc(F)cc1 (stereo not drawn) | inactive: 79% |
| O=C(CCn1c(=O)c2cccn2c2ccc(F)cc21)NCc1ccccc1F | inactive: 75% |
| Cc1ccc(NC(=O)CSc2nc(-c3ccc(F)cc3)cc(C(F)(F)F)c2C#N)cc1 | inactive: 85% |
| CCSc1ncnc2c(-c3ccc(OC)cc3)nsc12 | inactive: 93% |
| Cc1cccc(NC(=O)Cn2c(=O)n(Cc3ccc(C(=O)NCc4ccc5c(c4)OCO5)cc3)c(=O)c3ccccc32)c1 | inactive: 129% |
| CCOc1ccc(C(=O)c2cn(CC(=O)Nc3cc(OC)cc(OC)c3)c3ccc(F)cc3c2=O)cc1 | inactive: 93% |
| Cc1ccccc1Cn1c(SCc2ccc(C(=O)NCc3cccs3)cc2)nc2ccncc21 | inactive: 139% |
| COc1ccc(S(=O)(=O)N(Cc2nc(-c3cccc(C)c3)no2)C2CCCCC2)cc1 | inactive: 83% |
| Cc1ccc2[nH]cc(NC(=O)N3CCCCC3)c(=O)c2c1 | inactive: 119% |
| Cc1cccc(OCc2nnc(SCC(=O)Nc3ccc(C)cc3C)o2)c1 | inactive: 129% |
| Cc1ccccc1Cn1c(CCCNC(=O)C2CCCCC2)nc2ccccc21 | inactive: 101% |
| O=C(N1CCC(O)(c2cccnc2)CC1)C12CC3CC(CC(C3)C1)C2 | inactive: 107% |
| Cc1nnc(N2CCC(C(=O)NC(C)C)CC2)c2nn(-c3ccc(Cl)cc3)c(C)c12 | inactive: 64% |
| CCCC(=O)Nc1cccc(-c2nc3ccccc3c(=O)o2)c1 | inactive: 94% |
| COc1ccccc1N1CCN(S(=O)(=O)c2ccc3c(c2)oc(=O)n3C)CC1 | inactive: 79% |
| CCCSCCCNC(=O)C1CCN(C(=O)c2cc3sccc3n2C)CC1 | inactive: 135% |
| O=S(=O)(c1ccc(-n2cnnn2)cc1)N1CCN(c2ccccc2F)CC1 | inactive: 98% |
| CCCCOc1ccc(C2c3c(-c4ccccc4O)n[nH]c3C(=O)N2Cc2ccncc2)cc1OC (stereo not drawn) | inactive: 55% |
| O=C(Nc1nc(-c2ccc(Br)cc2)ns1)c1ccc(F)cc1 | inactive: 70% |

| Structure (SMILES) | survival |
| --- | --- |
| CCN(CCCNC(=O)c1cc2c(=O)[nH]c3ccccc3c2s1)c1ccccc1 | inactive: 86% |
| CCC1CCCCN1S(=O)(=O)c1ccc(NC(=O)c2cc(=O)c3ccccc3o2)cc1 (stereo not drawn) | inactive: 85% |
| N#Cc1ccc2ccn(CC(N)=O)c2c1 | inactive: 95% |
| CCOc1ccc(-n2c(C)nc3c(cnn3-c3ccc(C)cc3)c2=O)cc1 | inactive: 81% |
| CC(=O)c1cccc(NC(=O)Cn2c(SCC(=O)Nc3ccc(F)cc3)nc3ccccc32)c1 | active: -3% |
| CCCCn1nnnc1SCC(=O)c1cc(OC)ccc1OC | inactive: 129% |
| Cc1c2cnn(CC(=O)NCc3ccccc3)c(=O)c2c(C)n1Cc1cccc(Cl)c1 | inactive: 89% |
| Cc1ccc(C=N/C(=N\NC(=O)c2ccccc2)c2ccccc2)o1 | inactive: 119% |
| COCCCNC(=O)CSc1nc(-c2cccc(F)c2)[nH]c1-c1ccccc1 | inactive: 91% |
| O=C(CN1CCN(Cc2ccccc2Cl)C1=O)NCc1ccccc1Cl | inactive: 80% |
| CC(=O)Nc1cccc(NC(=O)Cn2c(-c3cccnc3)ccc(C#N)c2=O)c1 | inactive: 89% |
| COc1ccc(-c2c(C#N)c(SCC(=O)Nc3ccccc3C)nc(C)c2C(=O)Nc2ccccc2)cc1OC | inactive: 99% |
| COc1ccc(C(=O)SC2=NCCS2)cc1 | inactive: 117% |
| N#C/C(=C\c1ccc(Cl)cc1)C(=O)NCC1CCCO1 (stereo not drawn) | inactive: 67% |
| COc1ccc(CCN2C(=O)N(c3ccc(F)cc3)C(=O)C2CC(=O)Nc2ccccc2)cc1 (stereo not drawn) | inactive: 70% |
| CCOc1ccc(NC(=O)Cc2coc3ccc(C)cc23)cc1 | inactive: 142% |
| COc1ccc(-c2cc(C(F)F)n3ncc(C(=O)Nc4cc(OC)ccc4OC)c3n2)cc1 | inactive: 64% |
| CCc1cnc2c(c1SCC(=O)Nc1ccc(Cl)cc1)c(=O)n(C)c(=O)n2C | inactive: 128% |
